Assay results from the supplement of paper PMC12632987.
Over roughly 4,500 sequences, “median log2 fold change of GCK-ALFA target abundance (FLAG IP / Myc IP barcode read proportion)” has its median near 0.078; the lowest 2% begin near -0.6. The list shows a part of the results.

B1: GBRAP_160_4768 (protein)
chain: KEELEKLKKEVEEEFDEAEEMLKESPASEAPTIIRGTMGDVIMLVESSEAVSEELEEKIAEIMDAAEAEAAALADAPVEEHLALLREARDKVLELIEEEI
B2: GBRAP_137_3677 (protein)
chain: SKVEITVKEVDGLVEITVLVHDPEKAEEDEEKLLDIAHEVGALAVAIKRNEDGSLEVTIVVPEEKGEEALEKVLELAKEYDEVVIRREKDGEVTEEVLRK
B3: GBRAP_43_5787 (protein)
chain: MEELVEGTLDFAFTALETPEITDETKGRIVEDAVEFALDEGLLTEETLTELLEALRESVSPEVFAETLERILERAKELGAPQSLIDIIEEALEEAREEIE
B4: GBRAP_35_5523 (protein)
chain: SSDETETEMLVSTIEDLVKAIPDLPVETAAEIATKLVELAERLAEDVKDNLESLKKIKEAIEKLIEALKKHHGDSPLAQEVIKKAEEVKEKIEKLIKEIE
B5: GBRAP_184_5062 (protein)
chain: KTLEEEIEVENLEEAREKLAELAEKVKDFKGDLVVLLKLPRPDREIIRAALRGLAAIKEAGYVTRVTLGIDVELSEEEVDFALAEADEAGVRVVVALSEE
B6: GBRAP_160_4101 (protein)
chain: SEKVEEVIKEIDEIEEETLEMIEGETIEQRATIVRGAGGEVIMLLEESGIVSDEVIDFADEEFDKLVETILANPELTEEEIKELIREVRERIKKKIKEDA
B7: GBRAP_166_4901 (protein)
chain: SREEEIERLLAEARRLIEEFPELDEEGKWEAILEFGELLRRLRELGVPEETLLELVRELLEAAKEAGLNVKVVAGTIANVAEFDEEFIDKLDEIAEEVAK
B8: GBRAP_9_7105 (protein)
chain: KEEFAKKVKEIILDAREEIKKVVPEELKPLVDKLTEELLKEIEKLEKDPNTTKEEIAKKAKEGLKKMAEELKKKLSPEIAAAVEAITLTAIEEIDELEEE
B9: GBRAP_35_5533 (protein)
chain: NSDEEIAEMLLNTMEALVDALPDVSPEQQLALARHLIRLAEDFLELKTKSAELIKRLIEVLERAIELIKKSSLPPEQQEELIRELEELRERAKELLKEVE
B10: GBRAP_45_5802 (protein)
chain: DAALAAAKKELRELLEKILEEVKKLLEKDPETFGKVKELIEKALKLLDAGPDTVEKAQELLELVEEALKLLASSPHATGELLDLALEAVNKAADILELLK
B11: GBRAP_160_4297 (protein)
chain: MEKVEKALKFIDEEAEEIISELPNVSHEQAVVLVAGRFGEIIRYLEEEEVVSDEDLEKIDEIVRETVEYLKSHPDLSVEEIKEKIKEAAEKIKKIIKEEA
B12: GBRAP_52_6280 (protein)
chain: SMEEVEATAKEIIALVKAGDLEGAIAKAKEAVKKFSLEEVLELGNLLIEAIAELPDEQVDLMMEVVDTLADELEKRFGEESLADVLRARAAAAAYARLQA
B13: GBRAP_128_3353 (protein)
chain: LDEEFLAEVEETVERMKEADVEEVYELTRELVDRISKASPEEQEAAFEILRKALPEFDAEKLEAIADAIEEKLPELDPYTAELAADVLVEALNLAEEKEE
B14: GBRAP_52_6093 (protein)
chain: MEEKIKEYAEKILEAAKAGDVEKVTELLLKAVEELSDEEVLEMGRLFADLASKLPKEELEKVTEVVIEALDKVAEKTGKEELMDELEAYLAAKAYKALQK
B15: GBRAP_160_4432 (protein)
chain: SEKLEKAKKEIKELFEETLEMMKGQTAEERITVLRVTEGEIKLMLEELGLLTDEVDKVIDEVFDEIIAYVEANPDITDEELKELLEEAVKKIEEELEKVS
B16: GBRAP_160_4378 (protein)
chain: SEELKELREDVEELRKEFEEEAKDLSTEEVRTLAIGVLAEVAADVWSNEAISEETKDKIMEIIDEAIEKLRENADASPEEIVKITTEALDKIIELIKEEE
B17: GBRAP_11_2772 (protein)
chain: KAEELKEAAKLAEELAKLAEELIEKGPDDEELLKELEKKLEELKKLTEKYGSEAQKKDVELIEELFKEMLEDPENAEEYLKELRNQALVLSGQFLLDAEE
B18: GBRAP_52_5961 (protein)
chain: MREKMEKLVNELLELKKEGKEEEMRKKLKEIAETLNEEELELLAEVMAEKVKESNLEEAEILLDIALELGDVLIEEGRDEGIASYIEALVAAAAYELEQK
B19: GBRAP_128_3175 (protein)
chain: SVEEVRERTREAMERIRNSSPEEAREIAEELFTWLGTLSLEEAEAAVEVILEMLPELTAEHLEIVADVAREHRPLFTPEKAELVAEVEVEALNLAEELEE
B20: GBRAP_125_3096 (protein)
chain: HMEEILEALKLLAKALGFSEEEAEELARLAANSSVKQTLYALFAAEGYEELADLVEKLTEEQAKEVLLELAKWLKENPNASKEEVVKKAKELAKKALAKA
B21: GBRAP_55_6438 (protein)
chain: MTDEEMHQEAIDDTVEMLRDAALDTDTFVRLALALADLLEPGEEVTVEIVVEDPEDAERALAAAEAAKAALEARGYEATIEVEERPDGSTVIRLTIRRPA
B22: GBRAP_78_6663 (protein)
chain: KVEELIDKALEELSKAAKLTKELPEEDRNEVLDLLVDAASDLVEAEEEGGDLKLLEEALKELEKAIKLLEELKTEEAAKVLKEVKKAKEYVKKAIKELKK
B23: GBRAP_128_3436 (protein)
chain: SSEELLKKAKELIEKILKASVEEVYELTKELLELFDTLSDEDAEKVAEYFISKIPKLSKEKLEAVADAIREQRPKLSPYKANLANEVEVEALNQILELEE
B24: GBRAP_52_6318 (protein)
chain: MRERAEELAERLVKLVKEGKLEEAKALAKEIAENESLEFLELLAEVLAERILTADEEERDALLEATEILAEALIEAGHDEAFASDIIARAAAAGYEAELR
B25: GBRAP_137_3672 (protein)
chain: MIDAKIEIEDGLAYAELTYKGSLEEAKKAAEIAEEIAGKIPGIAISTKVDEDGTLTIDLGGTLEQIMKFLKELAKALNVTINVTIKDLDTGETTKETIKA
B26: GBRAP_52_6167 (protein)
chain: MEERAKEYAEKLLAAVKAGDEEKVEEILKEIAETMNDEEIELFLDHVAKAVAGLTPEDKERVVEAALRFEDIAIEAGHDEELLDYHVARVAGAAYDALQA
B27: GBRAP_14_3795 (protein)
chain: KEEKIKAIEEAREEALKLAESLPEEVRELLERILREATEELKEGIEKNEIDLDGVAEILDEHIEKLKEEVKPFPEEHRNEAIAIFNDYAGDVLLELEELE
B28: GBRAP_160_4351 (protein)
chain: MERVEKLIKEIREATEEVIEALDEVSVEEAATLAAGEFGSVAMEAALDERMSDEMVDAVIKGMDEAVAALKEMADASVEERKKKLREITEKTIEELKKIA
B29: GBRAP_131_3605 (protein)
chain: LKGLLATIDEPLSVEEALARVDEIVAEAVAQGADALVIRLRNQSEEVYEAALERADELDERLEKERGMKIVVLPPGTTEAEAQNILQALLDEVELEKEEE

Target: GABARAP, O95166
Sequence (O95166 whole entry, the tested form may be a part): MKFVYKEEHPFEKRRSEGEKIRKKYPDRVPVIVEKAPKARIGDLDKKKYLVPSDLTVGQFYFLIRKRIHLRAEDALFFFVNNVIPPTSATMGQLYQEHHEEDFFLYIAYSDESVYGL
Experiment: median log2 fold change of GCK-ALFA target abundance (FLAG IP / Myc IP barcode read proportion) (log2 ratio); each designed protein is fused to an ALFA-tag nanobody in HEK293 cells to bring the named protein to FLAG-tagged glucokinase (GCK); Myc marks an untargeted standard; higher = target protein stabilised (more abundant)
Settings: target protein: 3xFLAG-MCP-GCK-ALFA reporter; HEK293 landing pad (RPLP)
Method in brief: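 Sequencing of reverse-transcribed, amplified circular RNA barcodes from anti-FLAG and anti-Myc immunoprecipitates provided the readout for an ALFA-nanobody-fused binder library recombined into HEK293 landing-pad cells. Those cells were induced with 2 μg mL^−1 doxycycline, transfected with a plasmid expressing a FLAG-tagged target and a Myc-tagged standard, and lysed after 48 h. Target abundance is the per-binder median log2 ratio of FLAG to Myc barcode read proportions. Only barcodes at a proportion of ≥10^−7 in both replicates and binders with ≥3 barcodes per replicate were kept, with a 10^−6 pseudocount added before the two replicates were pooled.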

Binder | median log2 fold change
B1 | -0.00743
B2 | 0.389
B3 | -0.378
B4 | 0.385
B5 | -0.0913
B6 | -0.183
B7 | 0.275
B8 | 0.182
B9 | -0.115
B10 | -0.181
B11 | 0.0843
B12 | 0.228
B13 | -0.128
B14 | 0.0741
B15 | 0.217
B16 | -0.0653
B17 | 0.288
B18 | -0.261
B19 | 0.269
B20 | 0.229
B21 | 0.146
B22 | -0.19
B23 | 0.166
B24 | 0.11
B25 | 0.117
B26 | -0.0719
B27 | 0.092
B28 | -0.319
B29 | 0.0781
